# Test results taken from PubChem BioAssay AID686970 (National Center for Advancing Translational Sciences (NCATS), 2013).
# In all, about 360,000 compounds went through this assay and about 6,000 (1.7%) were called active. The shares of active, inactive and inconclusive entries below differ from those in the screen. Calls come from the whole dose curve; as a rule, active = well fitted cell-killing curve with a large enough effect; inconclusive = small, poorly fitted or top-dose-only effect, or effect the other way; inactive = flat fitted curve, though single readings scatter. No potency is given beside an inconclusive call; the fits are too rough.
# Assay: qHTS for induction of synthetic lethality in tumor cells producing 2HG: qHTS for the HT-1080-NT fibrosarcoma cell line;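 note: NT is the 2HG producing partner of a matched IDH1 knockdown line; nearly all actives have a fitted effect of over 55% in size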;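 for activity, negative = less viability: 0% = DMSO-treated cells and -100% = media-only wells without cells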
# Conditions: HT-1080-NT fibrosarcoma viability, CellTiter-Glo ATP luminescence, 48 h; activity, negative = less viability: at 46.1 µM (top of the series) unless noted
# Summary of the method: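 Viability of the 2HG-overproducing fibrosarcoma line after 48 hours of compound exposure at 37 degrees C was determined by luminescence with CellTiter-Glo, and concentration-effect curves were then fitted and categorized.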
# Potency is the fitted concentration of half-maximal effect; tags give direction and shape of the fitted curve.
Structure (SMILES),Potency,"activity, negative = less viability"
COc1ccc(C2(C)NC(=O)N(CC(=O)Nc3ccc4ccccc4c3)C2=O)cc1OC (centres undefined),"inconclusive [cytotoxic, partial curve]",
O=C(C[n+]1cc(Br)cc(Br)c1)c1ccc(Cl)cc1,inactive,
c1ccc(CC2CCN(c3ncnc4sccc34)CC2)cc1,active: 11.6 µM,
O=C(Oc1ccc[nH]c1=O)c1ccccc1,"inconclusive [cytotoxic, single point]",
CCN1CCN(Cc2ccc(NC(=O)c3ccc(C)c(/C=C/c4cnc(Nc5cc(N6CCNCC6)nc(C)n5)cn4)c3)cc2C(F)(F)F)CC1,"inconclusive [cytotoxic, single point]",
CCOC(=O)c1ccc(N=Cc2nc3ccccc3n2C)cc1,inactive,
CCCNC(=O)C1(C)CCN(C(=O)COCc2ccccc2)C1 (centres undefined),,inconclusive: 15.1%
Cc1ccc(NC(=O)C2CCCC2)cc1Cl,inactive,
c1ccc(CN2CCC(N=C3NN=C(c4ccc5c(c4)OCCO5)CS3)CC2)cc1,"inconclusive [cytotoxic, single point]",
CCOc1ccc(NC(=O)c2cccc(NC(C)=O)c2)cc1S(=O)(=O)N1CCCC1,inactive,
COc1cccc(C(=O)Nc2ccc(N3CCN(C(=O)c4cccs4)CC3)cc2)c1,"inconclusive [cytotoxic, full curve]",
O=C(Oc1cccc(C(=S)N2CCOCC2)c1)c1cccc([N+](=O)[O-])c1,"inconclusive [rising, partial curve]",
CCC(CC)C1C(C#N)=C(N)Oc2n[nH]c(C)c21 (centres undefined),active: 11.2 µM,
O=[N+]([O-])c1ccc(-c2csc(NN=C3CCCC3)n2)cc1,"inconclusive [cytotoxic, single point]",
Cc1ccc(C(=O)N2CCN(c3ccc4c(c3)C3CC4CCN3C(=O)OCc3ccccc3)CC2)cc1 (centres undefined),"inconclusive [cytotoxic, single point]",
Cc1cc(C)cc(NC(=O)Nc2ccc(N3CCCCC3)cc2)c1,"inconclusive [cytotoxic, single point]",
CCOc1cc(NC(=O)CCl)c(OCC)cc1NC(=O)CCl,"inconclusive [cytotoxic, partial curve, poor fit]",
CCOC(=O)C(=CNc1nc(-c2ccc3ccccc3c2)cs1)C(=O)OCC,"inconclusive [cytotoxic, single point]",
O=C(Nc1ccc2c(c1)OCO2)C1CC(c2ccc(Cl)cc2)=NO1 (centres undefined),"inconclusive [cytotoxic, single point]",
CC(C)CC(=O)/C(=C/c1ccc(N(C)C)cc1)n1cncn1,"inconclusive [rising, full curve, poor fit]",
Cc1ccccc1Cn1c(-c2cncs2)nc2ccccc21,inactive,
CC1CC(C)CN(CCCNC(=O)c2cc3c(=O)[nH]c4ccccc4c3n2C)C1 (centres undefined),"inconclusive [cytotoxic, single point]",

Structure (SMILES),Potency,"activity, negative = less viability"
CC1CN(S(=O)(=O)c2cccc(C(=O)Nc3ccc(S(=O)(=O)Nc4ncccn4)cc3)c2)CC(C)O1 (centres undefined),inactive,
O=C(COc1ccc2ccccc2c1CN1CCOCC1)N1CCc2ccccc21,"inconclusive [cytotoxic, partial curve]",
Cc1ccc2[nH]c(=O)c(C3C(C#N)=C(N)Oc4c3ccc3cccnc43)cc2c1 (centres undefined),inactive,
Oc1ccc(/C=N/Nc2nc(-c3ccc(Cl)cc3)cc(C(F)(F)F)n2)cc1,"inconclusive [cytotoxic, single point]",
CCOc1cccc2sc(N(CCCN(C)C)C(=O)c3ccc(S(=O)(=O)N(CC)Cc4ccccc4)cc3)nc12,"inconclusive [cytotoxic, single point]",
COc1ccccc1C(=O)Nc1cccc(Oc2c(F)c(F)c(F)c(F)c2F)c1,"inconclusive [rising, single point]",
Cc1cccc(-c2ncc(CN3CCCC(CO)(Cc4ccccc4C)C3)cn2)c1 (centres undefined),inactive,
CC(C)C[C@@H](CN1CCC[C@@H]1CN1C(=S)NC[C@@H]1Cc1ccc(O)cc1)N1C[C@H](Cc2ccc(O)cc2)N(CCc2ccccc2)C1=S,active: 25.9 µM,
CN(C)c1ccc(CN2CCC(C(=O)NC(c3ccc(F)cc3)c3ccc4ccccc4n3)CC2)cc1 (centres undefined),active: 14.6 µM,
CCN1C(=O)c2cccc3c(S(=O)(=O)Nc4ncccc4C)ccc1c23,"inconclusive [cytotoxic, single point]",
CCCCCCCCn1ccc(=N)cc1,"inconclusive [cytotoxic, single point]",
Clc1ccc(Cn2cc(/C=N/n3cnnc3)c3ccccc32)c(Cl)c1,"inconclusive [cytotoxic, single point]",
O=C(c1cccc(C(F)(F)F)c1)N1CCC2(CC1)NCCc1[nH]cnc12,inactive,
CCN(CC(=O)Nc1ccc(OC)cc1)C(=O)c1ccc(OCc2c(C)noc2C)cc1,inactive,
O=C(NCc1ccccc1)c1noc2c1CCCCC2,"inconclusive [cytotoxic, single point]",
NC1=NC(=Nc2ccccc2)c2ccccc21,"inconclusive [cytotoxic, single point]",
COc1ccc(N2CCN(Cc3nc4c(c(=O)[nH]c(=O)n4C)n3CCCc3ccccc3)CC2)cc1,"inconclusive [cytotoxic, single point]",
CCOC(=O)C(C(=O)Cc1ccccc1)c1ccccc1 (centres undefined),inactive,
O=C(NCc1ccccc1)c1cc(C2CCCN(S(=O)(=O)c3ccccc3)C2)on1 (centres undefined),inactive,
c1ccc(CN2CCN(c3nc(-c4ccccc4)nc(-n4ccnc4)n3)CC2)cc1,"inconclusive [cytotoxic, single point]",
CC(=O)O[C@H]1[C@H](O)[C@H](Oc2c(O)c(C)c3c4c2[C@@H](C)CC[C@@H]4[C@@H](C)C[C@H]3C=C(C)C)O[C@@H](C)[C@H]1O,"inconclusive [cytotoxic, single point]",
CC(C)(C)c1csc(NC(=O)c2ccccc2O)n1,"inconclusive [cytotoxic, single point]",
